Sequences and labels used below:
B1: UUCUAAU (DNA:RNA)
RNA: GGGAGACCGGAAUUCAGAUUGUCCUUCUAAUUUAAAUCCCGUCGUAGCCACCA
DNA 1: CAATCTGAATTCCGGTCTCCC
DNA 2: TGGTGGCTACGACGGGATT
B2: CGCAACC (DNA:RNA)
RNA: B1 RNA with U25C, U26G, U28A, A30C, U31C
DNA 1: CAATCTGAATTCCGGTCTCCC
DNA 2: TGGTGGCTACGACGGGATT
B3: ACCUUAA (DNA:RNA)
RNA: B1 RNA with U25A, U26C, A29U, U31A
DNA 1: CAATCTGAATTCCGGTCTCCC
DNA 2: TGGTGGCTACGACGGGATT
B4: GCUCAUU (DNA:RNA)
RNA: B1 RNA with U25G, U26C, C27U, U28C, A30U
DNA 1: CAATCTGAATTCCGGTCTCCC
DNA 2: TGGTGGCTACGACGGGATT
B5: UAAUCGC (DNA:RNA)
RNA: B1 RNA with U26A, C27A, A29C, A30G, U31C
DNA 1: CAATCTGAATTCCGGTCTCCC
DNA 2: TGGTGGCTACGACGGGATT
B6: ACUGAUA (DNA:RNA)
RNA: B1 RNA with U25A, U26C, C27U, U28G, A30U, U31A
DNA 1: CAATCTGAATTCCGGTCTCCC
DNA 2: TGGTGGCTACGACGGGATT
B7: CGUACCC (DNA:RNA)
RNA: GGGAGACCGGAAUUCAGAUUGUCCCGUACCCUUAAAUCCCGUCGUAGCCACCA
DNA 1: CAATCTGAATTCCGGTCTCCC
DNA 2: TGGTGGCTACGACGGGATT
B8: CCAAAUA (DNA:RNA)
RNA: B7 RNA with G26C, U27A, C29A, C30U, C31A
DNA 1: CAATCTGAATTCCGGTCTCCC
DNA 2: TGGTGGCTACGACGGGATT
B9: AGUUGAC (DNA:RNA)
RNA: B7 RNA with C25A, A28U, C29G, C30A
DNA 1: CAATCTGAATTCCGGTCTCCC
DNA 2: TGGTGGCTACGACGGGATT
B10: UCGAAGG (DNA:RNA)
RNA: B1 RNA with U26C, C27G, U28A, A30G, U31G
DNA 1: CAATCTGAATTCCGGTCTCCC
DNA 2: TGGTGGCTACGACGGGATT
B11: CCGCAGA (DNA:RNA)
RNA: B7 RNA with G26C, U27G, A28C, C29A, C30G, C31A
DNA 1: CAATCTGAATTCCGGTCTCCC
DNA 2: TGGTGGCTACGACGGGATT
B12: GGGAUGC (DNA:RNA)
RNA: B7 RNA with C25G, U27G, C29U, C30G
DNA 1: CAATCTGAATTCCGGTCTCCC
DNA 2: TGGTGGCTACGACGGGATT
B13: CCCCCAG (DNA:RNA)
RNA: B7 RNA with G26C, U27C, A28C, C30A, C31G
DNA 1: CAATCTGAATTCCGGTCTCCC
DNA 2: TGGTGGCTACGACGGGATT
B14: AGCCUCC (DNA:RNA)
RNA: B7 RNA with C25A, U27C, A28C, C29U
DNA 1: CAATCTGAATTCCGGTCTCCC
DNA 2: TGGTGGCTACGACGGGATT
B15: GGCUACC (DNA:RNA)
RNA: B7 RNA with C25G, U27C, A28U, C29A
DNA 1: CAATCTGAATTCCGGTCTCCC
DNA 2: TGGTGGCTACGACGGGATT
B16: ACUAAAC (DNA:RNA)
RNA: B7 RNA with C25A, G26C, C29A, C30A
DNA 1: CAATCTGAATTCCGGTCTCCC
DNA 2: TGGTGGCTACGACGGGATT
B17: UUUAGAG (DNA:RNA)
RNA: B1 RNA with C27U, U28A, A29G, U31G
DNA 1: CAATCTGAATTCCGGTCTCCC
DNA 2: TGGTGGCTACGACGGGATT
B18: AGGUUGG (DNA:RNA)
RNA: B7 RNA with C25A, U27G, A28U, C29U, C30G, C31G
DNA 1: CAATCTGAATTCCGGTCTCCC
DNA 2: TGGTGGCTACGACGGGATT
B19: UUUUUUA (DNA:RNA)
RNA: B1 RNA with C27U, A29U, A30U, U31A
DNA 1: CAATCTGAATTCCGGTCTCCC
DNA 2: TGGTGGCTACGACGGGATT
B20: AGAAGUC (DNA:RNA)
RNA: B7 RNA with C25A, U27A, C29G, C30U
DNA 1: CAATCTGAATTCCGGTCTCCC
DNA 2: TGGTGGCTACGACGGGATT
B21: UACGUAU (DNA:RNA)
RNA: B1 RNA with U26A, U28G, A29U
DNA 1: CAATCTGAATTCCGGTCTCCC
DNA 2: TGGTGGCTACGACGGGATT
B22: GAUUCAU (DNA:RNA)
RNA: B1 RNA with U25G, U26A, C27U, A29C
DNA 1: CAATCTGAATTCCGGTCTCCC
DNA 2: TGGTGGCTACGACGGGATT
B23: CCUACUA (DNA:RNA)
RNA: B7 RNA with G26C, C30U, C31A
DNA 1: CAATCTGAATTCCGGTCTCCC
DNA 2: TGGTGGCTACGACGGGATT
B24: CGAACUC (DNA:RNA)
RNA: B7 RNA with U27A, C30U
DNA 1: CAATCTGAATTCCGGTCTCCC
DNA 2: TGGTGGCTACGACGGGATT
B25: UGAAGGA (DNA:RNA)
RNA: B7 RNA with C25U, U27A, C29G, C30G, C31A
DNA 1: CAATCTGAATTCCGGTCTCCC
DNA 2: TGGTGGCTACGACGGGATT
B26: GCGUCAG (DNA:RNA)
RNA: B1 RNA with U25G, U26C, C27G, A29C, U31G
DNA 1: CAATCTGAATTCCGGTCTCCC
DNA 2: TGGTGGCTACGACGGGATT
B27: GGAUCUA (DNA:RNA)
RNA: B7 RNA with C25G, U27A, A28U, C30U, C31A
DNA 1: CAATCTGAATTCCGGTCTCCC
DNA 2: TGGTGGCTACGACGGGATT
B28: GGCAGCU (DNA:RNA)
RNA: B7 RNA with C25G, U27C, C29G, C31U
DNA 1: CAATCTGAATTCCGGTCTCCC
DNA 2: TGGTGGCTACGACGGGATT
B29: AUGUCGU (DNA:RNA)
RNA: B1 RNA with U25A, C27G, A29C, A30G
DNA 1: CAATCTGAATTCCGGTCTCCC
DNA 2: TGGTGGCTACGACGGGATT
B30: GGUGCAU (DNA:RNA)
RNA: B7 RNA with C25G, A28G, C30A, C31U
DNA 1: CAATCTGAATTCCGGTCTCCC
DNA 2: TGGTGGCTACGACGGGATT
B31: CAGGGAU (DNA:RNA)
RNA: B1 RNA with U25C, U26A, C27G, U28G, A29G
DNA 1: CAATCTGAATTCCGGTCTCCC
DNA 2: TGGTGGCTACGACGGGATT

Numbering of substitutions follows the chain as printed; changes in the protein carry UniProt numbers. This is one part of the list.

The experiment has as its target T1, RBFOX1 RRM RbFoxmut (Fox-RRM*) (Homo sapiens, UniProt Q9NWB1 109-208, R118D;E147R;N151S;E152T).
T1 sequence: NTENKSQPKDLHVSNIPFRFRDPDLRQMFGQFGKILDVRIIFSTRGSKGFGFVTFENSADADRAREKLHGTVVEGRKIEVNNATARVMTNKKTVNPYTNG
As to the kind of experiment: EMSA; HiTS-Eq, 1 nM pool, 10 min; buffer printed only for the single-RNA assays: 10 mM Tris pH 7.5, 150 mM NaCl, 3.4 mM EDTA, 0.001% NP-40, 30 C. Particulars: tags: His6 N-terminal (pET28a); label: 5' 32P. An outline of the steps: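 A pool of RNA with 7 randomized nucleotides, 5′-radiolabelled and with DNA-annealed flanks, was equilibrated at 1 nM for 10 min in 50 µL with purified RbFox RRM, wild type or mutant, across increasing protein concentrations. Free RNA was separated by 8% native PAGE, excised, reverse-transcribed, barcoded by PCR and sequenced. Relative association constants were obtained from read-count changes of each RNA species versus the control reaction and normalised to the cognate motif.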
On the technique in general: Mobility shift assays separate free from complexed probe on a gel.
Take B1: the binding signal is 0.0754 KA relative to UGCAUGU.

On to B2, for which the binding signal is 0.0488 KA relative to UGCAUGU. Consider B3, for which the binding signal is 0.129 KA relative to UGCAUGU.

For B4, the binding signal is 0.0844 KA relative to UGCAUGU. As to B5, the binding signal is 0.0653 KA relative to UGCAUGU. As for B6, the binding signal is 0.0866 KA relative to UGCAUGU.

Regarding B7, the binding signal was 0.0393 KA relative to UGCAUGU.

Consider B8, for which the binding signal was 0.111 KA relative to UGCAUGU.

As to B9, the binding signal is 0.0906 KA relative to UGCAUGU. In the case of B10, the binding signal is 0.0925 KA relative to UGCAUGU. Next, B11: 0.111 KA relative to UGCAUGU; B12: 0.262 KA relative to UGCAUGU.

For B13, the binding signal was 0.0948 KA relative to UGCAUGU. As for B14, the binding signal is 0.0559 KA relative to UGCAUGU. As for B15, the binding signal is 0.115 KA relative to UGCAUGU. On to B16, for which the binding signal is 0.0844 KA relative to UGCAUGU. On to B17, for which the binding signal was 0.131 KA relative to UGCAUGU. For the molecule B18, the binding signal is 0.179 KA relative to UGCAUGU. For the molecule B19, the binding signal is 0.116 KA relative to UGCAUGU. Regarding B20, the binding signal is 0.0557 KA relative to UGCAUGU.

B21: the binding signal was 0.103 KA relative to UGCAUGU. For B22 the value was 0.123 KA relative to UGCAUGU. On to B23, for which the binding signal was 0.108 KA relative to UGCAUGU.

As for B24, the binding signal was 0.0793 KA relative to UGCAUGU. Consider B25, for which the binding signal was 0.0654 KA relative to UGCAUGU. For the molecule B26, the binding signal was 0.101 KA relative to UGCAUGU. As to B27, the binding signal was 0.154 KA relative to UGCAUGU. As for B28, the binding signal is 0.0642 KA relative to UGCAUGU. In the case of B29, the binding signal was 0.137 KA relative to UGCAUGU. On to B30, for which the binding signal was 0.107 KA relative to UGCAUGU. Next, B31: 0.0936 KA relative to UGCAUGU.

Source of the values: publication PMC9911399, “Two distinct binding modes provide the RNA-binding protein RbFox with extraordinary sequence specificity”.
